From PubChem BioAssay AID540267 (National Center for Advancing Translational Sciences (NCATS), 2011)
About 530 (0.16%) of roughly 340,000 compounds were called active. Inconclusive results, whose numbers are uncertain, are shown with a selection of clear calls. Rule as the data show it: active = activity change below about -80%; inconclusive = between about -30% and that limit; inactive = weaker than that.

Test: Small Molecules that selectively kill Giardia lamblia: qHTS;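 also: parasites exposed to compound for two days anaerobically before the ATP read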
Settings: Giardia lamblia trophozoite viability; at 7.66 µM; hits give low values
In short: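 ATP-content bioluminescence gauges trophozoite survival. Cells (100/well) receive compound and incubate anaerobically for 48 hrs at 37 deg C; detection reagent follows for 15-30 min at room temperature.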
% is scaled to controls: 0 for no effect and ±100 for the full control effect.

Which activity change does the source give for `O=C(NCC(=O)N(Cc1ccccc1)C(C(=O)NC1CCCC1)c1cccnc1)c1ccco1` (stereo unspecified) here?
The activity change was inconclusive: -34.3% [inhibitor].

Which activity change does the source give for `CCCCC(=O)NC(c1ccc([N+](=O)[O-])cc1)c1c(O)ccc2ccccc12` (stereo unspecified) here?
Its activity change is inconclusive: -30.7% [inhibitor].

Which activity change does the source give for `O=C(NCCc1ccccc1)C(=O)NCCC1CCCCN1S(=O)(=O)c1cccs1` (stereo unspecified) here?
Its activity change is inactive: -21.8%.

For `Cc1ccc(C(=O)Nc2ncc(Cc3ccccc3)s2)o1`, which activity change is on record?
The activity change was inconclusive: -34.8% [inhibitor].

Which activity change does the source give for `CN(C)S(=O)(=O)c1ccc(NC(=O)CN2CCC(Cc3ccccc3)CC2)cc1` here?
Its activity change is inactive: -5.52%.

For `CCCCn1c(N)c(N(CCOC)C(=O)c2ccc(S(=O)(=O)N3CCCCC3)cc2)c(=O)[nH]c1=O`, which activity change is on record?
Its activity change is inactive: 6.78%.

For `Cc1ccccc1NC(=S)NC(=O)COc1ccccc1C`, which activity change is on record?
The activity change was inactive: -6.33%.

Which activity change does the source give for `COC(=O)c1c(NC(=O)c2ccc([N+](=O)[O-])o2)sc2c1CCN(C(C)C)C2` here?
Its activity change is inconclusive: -73.1% [inhibitor].

For `COc1ccc(NC(=S)Nc2ccccc2)c(OC)c1`, which activity change is on record?
Its activity change is inactive: 18.1%.

For `Cc1ccc(/C=C/C(=O)NCCCN2CCN(CCCNC(=O)/C=C/c3ccc(C)cc3)CC2)cc1`, which activity change is on record?
Its activity change is inactive: -17.3%.

With `O=C(CCC(=O)Nc1cccc(Cl)c1)N/N=C/c1cc([N+](=O)[O-])ccc1O` as the compound, how does the activity change read?
The activity change was inactive: -0.0399%.

Which activity change does the source give for `COc1ccccc1C(=O)C1CCCN(C(=O)c2ccco2)C1` (stereo unspecified) here?
The activity change was inconclusive: -48.6% [inhibitor].

Which activity change does the source give for `Cc1ccc(Oc2nc(-c3cccnc3)nc3ccccc23)c([N+](=O)[O-])n1` here?
The activity change was inconclusive: -34.9% [inhibitor].

Which activity change does the source give for `O=C(CSc1nc2ccccc2c(=O)n1-c1ccccc1F)Nc1ccc2c(c1)CCC2` here?
The activity change was inconclusive: -31.1% [inhibitor].

Which activity change does the source give for `COCCNC(=O)Cn1c(=O)n(Cc2ccco2)c(=O)c2ccccc21` here?
Its activity change is inactive: -9.68%.

Which activity change does the source give for `Cc1ncc([N+](=O)[O-])n1CCOC(=O)Nc1ccc([N+](=O)[O-])cc1` here?
Its activity change is active: -83.5%.

Which activity change does the source give for `CCN(Cc1ccccc1)C(c1ccc(C)cc1)c1nnnn1C(C)(C)CC` (stereo unspecified) here?
The activity change was inactive: -8.44%.

For `Cc1cc(NC(=O)c2ccc3c(c2)OCCO3)no1`, which activity change is on record?
The activity change was active: -80%.

With `Cc1ccc(NC(=O)CSc2nnnn2-c2cccnc2)c(C)c1` as the compound, how does the activity change read?
The activity change was inconclusive: -30% [inhibitor].

Which activity change does the source give for `CCc1c(O)nc(SCC(=O)N(CC)CC)[nH]c1=O` here?
The activity change was inactive: -1.94%.

For `COc1ccc2oc(=Nc3ccccc3)c(-c3nc4ccccc4[nH]3)cc2c1`, which activity change is on record?
The activity change was inconclusive: -49.3% [inhibitor].

For `COc1ccc(-c2csc(NC(=S)NC(=O)c3ccc(S(=O)(=O)N(C)C)cc3)n2)cc1OC`, which activity change is on record?
Its activity change is inactive: 17.8%.

With `COc1cc(SC)ccc1C(=O)N1CCN(Cc2ccc3c(c2)OCO3)CC1` as the compound, how does the activity change read?
Its activity change is inconclusive: -42.4% [inhibitor].

With `O=C(NCCc1c[nH]c2ccccc12)C1CCCN(S(=O)(=O)c2ccccc2)C1` (stereo unspecified) as the compound, how does the activity change read?
The activity change was inactive: 0.152%.

For `C[C@H]1COC(=O)[C@H](NC(=O)OCC2c3ccccc3-c3ccccc32)C/C=C\C[C@H](CC(=O)N(CCO)Cc2ccccc2)C(=O)N1`, which activity change is on record?
The activity change was inconclusive: -37.4% [inhibitor].

With `CC(C)(C)NC(=O)NC(=O)CN1C(=O)NC(C)(c2ccccc2)C1=O` (stereo unspecified) as the compound, how does the activity change read?
The activity change was inactive: -6.13%.

With `CC(C)CNC(=S)N(Cc1ccco1)Cc1cc2cc3c(cc2[nH]c1=O)OCCO3` as the compound, how does the activity change read?
The activity change was inactive: 25.3%.

For `CCN(CC)c1ccc(/C=C(\C#N)c2ccccn2)cc1`, which activity change is on record?
The activity change was inconclusive: -51.7% [inhibitor].

With `CCOc1ccc(N(CC(=O)NCC(C)C)S(C)(=O)=O)cc1` as the compound, how does the activity change read?
The activity change was inconclusive: -30.9% [inhibitor].

Which activity change does the source give for `COc1cc([C@@H]2c3cc4c(cc3[C@H](O)[C@H]3COC(=O)[C@H]23)OCO4)cc(OC)c1OC` here?
The activity change was inconclusive: -33.6% [inhibitor].

Which activity change does the source give for `CS(=O)(=O)c1ccc2nc(NC(=O)c3cccs3)sc2c1` here?
Its activity change is inconclusive: -67.3% [inhibitor].

For `CC(=O)c1ccc(NC(=O)CSc2ccsc2[N+](=O)[O-])cc1`, which activity change is on record?
Its activity change is inconclusive: -74.5% [inhibitor].

Which activity change does the source give for `CC(=O)/C(=N/Nc1ccc([N+](=O)[O-])cc1)N1CCCc2ccccc21` here?
Its activity change is inconclusive: -37.9% [inhibitor].

With `Cc1ccc(NC(=O)N2CCc3ccccc32)cc1` as the compound, how does the activity change read?
The activity change was inconclusive: -36.8% [inhibitor].

Which activity change does the source give for `COCCNC(=S)NNC(=O)c1ccc(-n2cnnn2)cc1` here?
Its activity change is inconclusive: -36.4% [inhibitor].

Which activity change does the source give for `O=C(CN1CCN(Cc2ccc(Cl)cc2)C1=O)NCCCN1CCOCC1` here?
Its activity change is inconclusive: -37% [inhibitor].

Which activity change does the source give for `CC(=O)c1ccc(-c2ccc(/C=C(/Sc3n[nH]c(C)n3)C(=O)O)o2)cc1` here?
The activity change was inconclusive: -32.3% [inhibitor].

For `COc1cc(SC)ccc1C(=O)Nc1ccccn1`, which activity change is on record?
Its activity change is inconclusive: -37.7% [inhibitor].

Which activity change does the source give for `Cc1ccc(S(=O)(=O)Nc2cc(=O)[nH]c(SCC(=O)Nc3cccc(C)c3)n2)cc1` here?
The activity change was inconclusive: -35.3% [inhibitor].

For `O=C(COc1ccc2ccc(=O)oc2c1)NC1CCCC1`, which activity change is on record?
The activity change was inconclusive: -30.4% [inhibitor].

With `Cc1ccc(OCC(=O)Nc2ccon2)c([N+](=O)[O-])c1` as the compound, how does the activity change read?
Its activity change is inconclusive: -37.5% [inhibitor].

For `Cc1cccc(NC(=O)c2ccc3c(c2)OCCO3)c1`, which activity change is on record?
Its activity change is inconclusive: -69.1% [inhibitor].

For `CCOc1ccc(NC(=O)CN(C)C(=O)CCCn2c(=O)oc3ccccc32)cc1OCC`, which activity change is on record?
Its activity change is inactive: -3.42%.

For `CCNc1nc(NCC)nc(-n2nc(C)cc2C)n1`, which activity change is on record?
The activity change was inconclusive: -75.1% [inhibitor].

With `COc1ccc(NC(=O)c2ccc(OC)cc2)cc1` as the compound, how does the activity change read?
Its activity change is inconclusive: -31.4% [inhibitor].

Which activity change does the source give for `CCCCN(C)C(=O)c1ccc(CS(=O)(=O)c2ccccc2C)o1` here?
The activity change was inconclusive: -34.6% [inhibitor].

Which activity change does the source give for `CC(=O)Nc1nc2ccccc2n1Cc1ccccc1C` here?
The activity change was inactive: 5.37%.

For `O=C(NNC1=NS(=O)(=O)c2ccccc21)c1ccc([N+](=O)[O-])cc1`, which activity change is on record?
Its activity change is inconclusive: -36.8% [inhibitor].

With `O=[N+]([O-])c1ccc(CSc2nnc(-c3cnccn3)o2)cc1` as the compound, how does the activity change read?
The activity change was inconclusive: -58.5% [inhibitor].

For `N/C(=N\N=Cc1ccc2c(c1)OCO2)NN=Cc1ccc2c(c1)OCO2`, which activity change is on record?
Its activity change is inconclusive: -69.9% [inhibitor].

For `CC(C)CC(COCc1ccc(C(F)(F)F)cc1)N1CCN(C(=O)c2ccc(C(F)(F)F)cc2)CCC1=O` (stereo unspecified), which activity change is on record?
The activity change was inconclusive: -31.9% [inhibitor].

For `O=C(CC(c1ccccc1)c1ccccc1)NCc1cccnc1`, which activity change is on record?
Its activity change is inconclusive: -41.5% [inhibitor].

Which activity change does the source give for `Cc1cc2nc(/C=C/c3cccnc3)[nH]c2cc1C` here?
The activity change was inactive: 5.8%.

For `Cc1onc(-c2ccccc2Cl)c1C(=O)N1C=CC(C(F)(F)F)=NCC1`, which activity change is on record?
The activity change was inconclusive: -36.4% [inhibitor].

For `O=C(N/N=C/c1ccco1)C1CC1(c1ccccc1)c1ccccc1` (stereo unspecified), which activity change is on record?
The activity change was inconclusive: -32.8% [inhibitor].

Which activity change does the source give for `Cc1csc(NC(=O)c2cc3c(s2)CCCC3)n1` here?
Its activity change is inconclusive: -45.3% [inhibitor].

Which activity change does the source give for `O=C(NCc1nnc2c(C(F)(F)F)cc(Cl)cn12)c1ccco1` here?
The activity change was inconclusive: -31.5% [inhibitor].

With `Cc1ccc(C(=O)Nc2ccc3c(c2)OCCO3)c(C)c1` as the compound, how does the activity change read?
Its activity change is inconclusive: -74.2% [inhibitor].

For `O=C(Nc1ccc(F)cc1)c1ccccc1NC(=O)C1CC=CCC1C(=O)O` (stereo unspecified), which activity change is on record?
Its activity change is inconclusive: -36.6% [inhibitor].

Which activity change does the source give for `CC(C)Cn1c(N)c(S(=O)(=O)c2cccs2)c2nc3ccccc3nc21` here?
The activity change was inconclusive: -30% [inhibitor].

Which activity change does the source give for `c1ccc(CNCCCNCCCCNCCCNCc2ccccc2)cc1` here?
Its activity change is inactive: -12.6%.

Which activity change does the source give for `Cc1ccc2c(cnn2C(=O)CCCC(=O)NC(C)c2ccccc2)c1` (stereo unspecified) here?
Its activity change is inactive: -20.9%.

With `Nc1nc(Nc2ccc(Cl)cc2)c(NC=O)c(=O)[nH]1` as the compound, how does the activity change read?
The activity change was inconclusive: -41.6% [inhibitor].

For `CN=C1C=C/C(=N/N=c2\ccn(O)cc2C)C=C1C`, which activity change is on record?
Its activity change is inconclusive: -53.4% [inhibitor].

With `COCCNC(=O)/C(C#N)=C\c1ccc(CNS(=O)(=O)c2ccc(C)cc2)o1` as the compound, how does the activity change read?
The activity change was inconclusive: -31.9% [inhibitor].

With `CC(C)C(=O)N1CCN(c2ccc(NC(=O)c3ccc([N+](=O)[O-])o3)cc2Cl)CC1` as the compound, how does the activity change read?
The activity change was active: -87.9%.

Which activity change does the source give for `NCCCn1c(C(=O)c2ccc(Cl)cc2)c2ccc(C(F)(F)F)cc2[n+]1[O-]` here?
The activity change was inconclusive: -69.4% [inhibitor].

Which activity change does the source give for `CCC1=C(CC2NCCc3ccccc32)CC2c3cc(OC)c(OC)cc3CCN2C1` (stereo unspecified) here?
The activity change was inactive: 3.05%.

With `CN(C)C/C=C/C(=O)Nc1cccc(-c2c[nH]c3ncnc(Oc4ccc(NC(=O)CC(=O)Nc5ccc(F)cc5)cc4F)c23)c1` as the compound, how does the activity change read?
The activity change was inconclusive: -32.3% [inhibitor].

For `O=C(Nc1ccc(N2CCOCC2)cc1)c1cnccn1`, which activity change is on record?
The activity change was inconclusive: -62% [inhibitor].

For `O=C(/C=C/Nc1ccc(F)cc1Br)c1ccccc1`, which activity change is on record?
Its activity change is active: -88.8%.

With `CN(C)c1ccc(N=Nc2ccccc2C(=O)OCC(=O)NCC2CCCCC2)cc1` as the compound, how does the activity change read?
Its activity change is inactive: -16.1%.

For `O=C(NC(=S)Nn1cnc2c(cnn2-c2ccccc2)c1=O)c1ccc(Cl)cc1`, which activity change is on record?
Its activity change is inactive: -18.7%.

For `C=CCN(CC=C)S(=O)(=O)c1ccc(NC(=S)NC(=O)c2ccc(-c3ccccc3)cc2)cc1`, which activity change is on record?
The activity change was inactive: -17.4%.

Which activity change does the source give for `O=[N+]([O-])c1ccc2c3n([n+]([O-])c2c1)CCN=C3c1ccc(Cl)cc1` here?
Its activity change is inconclusive: -50.4% [inhibitor].

For `CC(C)=C1C2CCC1C1C(=O)N(NC(=O)COc3ccc(Cl)c(C)c3)C(=O)C21` (stereo unspecified), which activity change is on record?
Its activity change is inconclusive: -33.6% [inhibitor].
